Data on 57 compounds can be found in paper PMC4336329 (PLoS ONE, 2015).

Structures are written as SMILES. Screen size: about 310,000 compounds; about 14,000 (4.5%) showed an effect of 50% or more. The effect is printed as a negative number. This is one part of the list.
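Note: peak tail current of the secondary pulse compared with the same well before compound.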

Chain of human ether-à-go-go-related gene (hERG) potassium channel (Q12809 whole entry, looked up): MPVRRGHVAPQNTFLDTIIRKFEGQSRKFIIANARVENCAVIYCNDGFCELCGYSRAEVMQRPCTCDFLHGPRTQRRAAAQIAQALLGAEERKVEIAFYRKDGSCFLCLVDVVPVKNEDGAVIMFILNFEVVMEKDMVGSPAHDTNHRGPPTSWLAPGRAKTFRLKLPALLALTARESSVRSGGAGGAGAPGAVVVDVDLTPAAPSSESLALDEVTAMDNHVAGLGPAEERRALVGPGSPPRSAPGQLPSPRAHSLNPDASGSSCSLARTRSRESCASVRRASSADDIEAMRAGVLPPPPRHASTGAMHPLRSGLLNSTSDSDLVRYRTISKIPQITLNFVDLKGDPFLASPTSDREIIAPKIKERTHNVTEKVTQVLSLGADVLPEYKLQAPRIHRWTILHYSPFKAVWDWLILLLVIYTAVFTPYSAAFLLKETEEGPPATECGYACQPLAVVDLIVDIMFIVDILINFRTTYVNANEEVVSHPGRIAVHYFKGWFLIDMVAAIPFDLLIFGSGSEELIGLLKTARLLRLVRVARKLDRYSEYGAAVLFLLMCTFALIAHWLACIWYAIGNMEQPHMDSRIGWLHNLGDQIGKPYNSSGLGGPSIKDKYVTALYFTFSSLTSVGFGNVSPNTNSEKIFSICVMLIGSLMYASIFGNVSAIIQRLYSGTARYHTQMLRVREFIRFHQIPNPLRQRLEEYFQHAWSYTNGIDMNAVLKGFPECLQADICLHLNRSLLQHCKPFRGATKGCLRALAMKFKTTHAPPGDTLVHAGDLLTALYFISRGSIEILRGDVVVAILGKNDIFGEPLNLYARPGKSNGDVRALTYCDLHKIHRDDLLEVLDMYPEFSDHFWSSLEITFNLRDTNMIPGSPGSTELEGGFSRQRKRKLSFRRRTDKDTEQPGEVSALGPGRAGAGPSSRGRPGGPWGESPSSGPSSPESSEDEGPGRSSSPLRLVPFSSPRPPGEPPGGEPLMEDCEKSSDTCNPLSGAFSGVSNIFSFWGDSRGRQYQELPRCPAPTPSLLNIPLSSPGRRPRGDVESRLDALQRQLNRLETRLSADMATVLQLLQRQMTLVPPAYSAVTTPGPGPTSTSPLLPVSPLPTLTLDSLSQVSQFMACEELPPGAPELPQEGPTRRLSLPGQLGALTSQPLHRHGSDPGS

The experiment addresses human ether-à-go-go-related gene (hERG) potassium channel (human, UniProt Q12809). Nature of the experiment: primary screen, population patch clamp on CHO cells stably expressing hERG.
On to `CCCc1nc2c(nnn2Cc2ccccc2)c(=O)[nH]1`, for which the “hERG current change (%, negative = inhibition) at 10uM” value turned out to be 9.17%. For the compound `CC(C)c1ccc(-n2nnnc2SCC(=O)NC2CC2)cc1`, the “hERG current change (%, negative = inhibition) at 10uM” value was -0.709%.

For the compound `COc1ccc(NC(=O)c2ccc(S(=O)(=O)C(F)F)cc2)c(OC)c1`, the “hERG current change (%, negative = inhibition) at 10uM” value is on record as -29.8%. With `COc1ccccc1CNC(=O)COC(=O)c1n[nH]c2ccccc12`, the “hERG current change (%, negative = inhibition) at 10uM” value is reported as -9.37%.

Take `Cc1ccc(C2=CC(c3ccccc3)n3ncnc3N2)cc1` (stereo not drawn): the “hERG current change (%, negative = inhibition) at 10uM” value is given as -15.8%. On to `CC(C)CCN1C(=O)c2ccc(C(=O)NCC3CCCO3)cc2C1=O` (stereo not drawn), for which the “hERG current change (%, negative = inhibition) at 10uM” value was -8.48%. `Cc1ccc(C(=O)N(c2ccccc2)C2CC(C)N(C(=O)c3ccco3)c3ccccc32)cc1` (stereo not drawn): the “hERG current change (%, negative = inhibition) at 10uM” value is -12.2%.

Regarding `CCC(C)NC(=O)CCS(=O)(=O)c1ccc(Br)s1` (stereo not drawn), the “hERG current change (%, negative = inhibition) at 10uM” value worked out at 8.89%.

On to `Cc1ccc(-c2csc3ncnc(SCC(=O)Nc4nnc(C)s4)c23)cc1`, for which the “hERG current change (%, negative = inhibition) at 10uM” value was -4.31%. For the compound `Cc1cc(C)c(C(=O)C2OC(=O)C(C)(C)C(=O)C2(C)C)c(C)c1` (stereo not drawn), the “hERG current change (%, negative = inhibition) at 10uM” value is -1.91%. Consider `COS(=O)(=O)[O-].Cn1c(Cc2ccccc2)[n+](C)c2ccccc21`, for which the “hERG current change (%, negative = inhibition) at 10uM” value is 6.5%. As for `O=C(CC1C(=O)NC2CCCCC2N1C(=O)c1ccc([N+](=O)[O-])cc1)Nc1ccccc1` (stereo not drawn), the figure is -34.4%; as for `CC(C)NC(=O)c1cc2cc([N+](=O)[O-])ccc2s1`, 13.6%. As for `CC(C)CCNC(=O)COc1ccc(C(=O)c2ccccc2)cc1`, the figure is -23.8%. Take `O=S(=O)(Cc1nc2ccccc2s1)c1ccccc1`: the “hERG current change (%, negative = inhibition) at 10uM” value was 0.281%.

As to `CC(=O)c1cccc(NC(=O)CSCc2ccccc2)c1`, the “hERG current change (%, negative = inhibition) at 10uM” value is reported as -8.1%. Consider `Cc1cc(S(=O)(=O)N(Cc2ccccc2F)C2CC2)ccc1-n1cnnn1`, for which the “hERG current change (%, negative = inhibition) at 10uM” value is -14.8%. Turning to `COc1ccc(OC)c2sc(NC(=O)c3cccc(N4C(=O)CCC4=O)c3)nc12`, the “hERG current change (%, negative = inhibition) at 10uM” value stood at 4.6%. Regarding `O=S(=O)(NCc1cccs1)c1ccc(Br)cc1`, the “hERG current change (%, negative = inhibition) at 10uM” value is given as -12.2%.

For the compound `O=C(Nc1c2c(nn1-c1ccccc1)CS(=O)(=O)C2)c1cccs1`, the “hERG current change (%, negative = inhibition) at 10uM” value is recorded as -20%. As for `Cc1ccc(N(O)C(=O)OCCNC(=O)Nc2ccccc2)cc1`, the figure is -0.0127%. For the compound `COc1ccnc(Oc2ccccc2)c1C#N`, the “hERG current change (%, negative = inhibition) at 10uM” value came to 4.39%. Consider `O=C(Cc1c(Cl)cccc1Cl)Nc1ccncc1`, for which the “hERG current change (%, negative = inhibition) at 10uM” value was -11.9%. On to `CCC1(C)Cc2ccccc2-c2nc3n(c(=O)c21)CC(C(=O)O)S3` (stereo not drawn), for which the “hERG current change (%, negative = inhibition) at 10uM” value came to 13.5%. As for `Cc1ccc(C(=O)C(C)OC(=O)C2CCN(c3ccc(C(F)(F)F)cn3)CC2)cc1C` (stereo not drawn), the figure is 3.79%; as for `CCn1c(-c2nn(-c3ccc(C)cc3)ccc2=O)n[nH]c1=S`, 10.7%. For the compound `O=C1c2ccccc2NC(c2cc(Cl)cc(Cl)c2O)N1Cc1cccnc1` (stereo not drawn), the “hERG current change (%, negative = inhibition) at 10uM” value is recorded as -7.02%. In the case of `CN1C(C(=O)NCCc2cccs2)CC2Cn3c(nc4cc5ccccc5cc43)C21` (stereo not drawn), the “hERG current change (%, negative = inhibition) at 10uM” value was -65.9%.

As for `CC(C)(C)C(=O)Oc1cc(N)n(S(=O)(=O)c2ccccc2)n1`, the “hERG current change (%, negative = inhibition) at 10uM” value was found to be 9.2%. For the compound `CCOC(=O)CSc1snnc1-c1ccccc1`, the “hERG current change (%, negative = inhibition) at 10uM” value is -5.35%.

Turning to `Cc1cccc(OCCSc2nc(N)cc(N)n2)c1`, the “hERG current change (%, negative = inhibition) at 10uM” value was determined as 1.33%. In the case of `COc1ccccc1CCc1nnc(CCC(=O)NCCCOc2cccnc2)o1`, the “hERG current change (%, negative = inhibition) at 10uM” value was found to be 5.77%. `CC(=O)c1ccc(OC(=O)CCc2nc3ccccc3s2)cc1`: the “hERG current change (%, negative = inhibition) at 10uM” value is listed as 21%.

Consider `CCOc1cc2c(cc1OCC)-n1cccc1C(c1ccc(OC)c(O)c1)NC2.Cl` (stereo not drawn), for which the “hERG current change (%, negative = inhibition) at 10uM” value was -12.4%. As to `COc1ccc(C(=O)CCNc2ccc(F)cc2)cc1`, the “hERG current change (%, negative = inhibition) at 10uM” value came to 21.5%. To `CC(C)Oc1ccc(C(=O)Nc2cccc3cccnc23)cc1` belongs 26.9%.

Take `Cc1ccc(CSc2nc3ccncc3n2CC(=O)Nc2cc(C)cc(C)c2)cc1`: the “hERG current change (%, negative = inhibition) at 10uM” value is on record as 7.38%. Take `CCOc1ccc(-c2c(C(=O)N/N=C/c3ccc(C)o3)nnn2-c2nonc2N)cc1`: the “hERG current change (%, negative = inhibition) at 10uM” value came out at 21.8%. As to `COc1ccc(NC(=S)NCc2ccc(S(N)(=O)=O)cc2)c(OC)c1`, the “hERG current change (%, negative = inhibition) at 10uM” value turned out to be 1.34%.

For the compound `CN(C)c1ccc(N/C=C/C(=O)C(C)(C)C)cc1`, the “hERG current change (%, negative = inhibition) at 10uM” value is 15.9%. As to `O=C(NNC(=S)Nc1ccc(Br)cc1)c1ccc(N2CCOCC2)c([N+](=O)[O-])c1`, the “hERG current change (%, negative = inhibition) at 10uM” value is on record as -6.3%.

For the compound `O=C(N/N=C/c1cccc(OCc2ccccc2)c1)c1ccc(Br)cc1`, the “hERG current change (%, negative = inhibition) at 10uM” value was 0.881%. With `Cc1ccc(C(=O)C2CCN(CC(=O)N3CCN(c4ccc(F)cc4)CC3)CC2)cc1`, the “hERG current change (%, negative = inhibition) at 10uM” value is -73.7%. As for `CCOC(=O)C1CCN(c2c([N+](=O)[O-])c(C(Cl)Cl)nn2-c2ccccc2)CC1`, the “hERG current change (%, negative = inhibition) at 10uM” value is -9.15%. As for `CCN(CC)S(=O)(=O)c1ccc2oc(C(=O)NCC3COc4ccccc4O3)c(C)c2c1` (stereo not drawn), the figure is -9.06%.

On to `CCOc1ccc(N(CC(=O)NC2CCCC2)S(=O)(=O)c2c(C)[nH]c(=O)[nH]c2=O)cc1`, for which the “hERG current change (%, negative = inhibition) at 10uM” value is listed as 4.61%. For `Cc1ccc(C2N(c3ccc(Cl)c(Cl)c3)C(=O)C3CCCN32)o1` (stereo not drawn), the “hERG current change (%, negative = inhibition) at 10uM” value is listed as -10.1%. Regarding `CCN1CCN(C(=S)c2ccc(OCC(=O)Nc3ccc(OC)cc3)cc2)CC1`, the “hERG current change (%, negative = inhibition) at 10uM” value turned out to be 11.2%. To `CN(C)C1=C(Cl)C(=O)N(c2ccc(Cl)c(Cl)c2)C1=O` belongs 12.2%; to `O=[n+]1c2c(n([O-])c3cc(Br)ccc31)CCC2`, -2.98%; to `CCOC(=O)CN1C(=O)C(Sc2n[nH]c(-c3cccc(C)c3)n2)CCc2ccccc21` (stereo not drawn), 6.35%. On to `Cc1cc(C(=O)N/N=C2\CC(=O)CC(C)(C)C2)n[nH]1`, for which the “hERG current change (%, negative = inhibition) at 10uM” value stood at 5.67%. Regarding `Cc1cc(C(=O)N/N=C/c2cn[nH]c2-c2ccccc2)cs1`, the “hERG current change (%, negative = inhibition) at 10uM” value is listed as -4.74%. As for `O=C(NC(=S)NC1CCSC1=O)c1cccc([N+](=O)[O-])c1` (stereo not drawn), the “hERG current change (%, negative = inhibition) at 10uM” value was -1.9%. `Cc1nc2ccccc2n1CCc1ccccc1`: the “hERG current change (%, negative = inhibition) at 10uM” value is on record as -12.8%.

For `Cc1ccnc(N2CCC(C(=O)NCc3ccccc3F)CC2)n1`, the “hERG current change (%, negative = inhibition) at 10uM” value is reported as 15.4%. Take `Cc1nc2ccccc2n1CC(=O)N/N=C/c1cccnc1`: the “hERG current change (%, negative = inhibition) at 10uM” value turned out to be 9.18%.
